Results from PubChem BioAssay AID686979 (National Center for Advancing Translational Sciences (NCATS), 2013).
Hit rate of the full screen: of about 420,000 compounds, about 50,000 (12%) were called active. Inconclusive results, whose numbers are uncertain, are shown with a selection of clear calls. Calls come from the whole dose curve; as a rule, active = well fitted inhibition curve with a large enough effect; inconclusive = small, poorly fitted or top-dose-only effect; inactive = flat fitted curve, though single readings scatter. No potency is given beside an inconclusive call; the fits are too rough.

assay: qHTS for Inhibitors of human tyrosyl-DNA phosphodiesterase 1 (TDP1): qHTS in cells in presence of CPT; details: chicken DT40 Tdp1-/-;hTDP1 cells + 20 nM CPT, ATP luminescence, 48 h; series mostly up to 46.2 µM; note: nearly all actives have a fitted effect of over 55% in size
How it was run: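 Chicken DT40 Tdp1-/- cells complemented with human TDP1, 400 cells/well, exposed to compounds plus 20 nM camptothecin for at least 48 h at 37 C; viability read as ATP content by CellTiter-Glo luminescence.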
Potency is the fitted concentration of half-maximal effect; tags give direction and shape of the fitted curve.

Structure (SMILES)	Potency
C#CCOc1c(Br)cc(/C=C2/C(=O)ON=C2C)cc1OC	inconclusive [inhibitor, single point]
COc1ccc(OC)c(CNC(=O)C2COc3ccccc3C2)c1 (stereo not drawn)	inconclusive [inhibitor, partial curve]
CCc1ccc(S(=O)(=O)c2nnn3c2nc(N2CCCC(C)C2)c2cc(Cl)ccc23)cc1 (stereo not drawn)	inconclusive [inhibitor, single point]
CC(=Nc1ccccc1)C1=C(O)C(Cc2ccc(F)cc2)NC1=O (stereo not drawn)	active: 1.03 µM
O=C(CSc1nc2ccc(Nc3nc(N4CCCC4)nc(N4CCCC4)n3)cc2s1)NCc1ccco1	active: 5.8 µM
CN(Cc1ccccc1)Cc1c(O)ccc2ccccc12	inconclusive [inhibitor, single point]
COc1ccc(NC(=O)c2ccco2)cc1NC(=O)COc1ccc(C)cc1C	inconclusive [inhibitor, full curve]
Cc1ccc(NC(=O)CSc2[nH]c(=O)ncc2C)cc1	inconclusive [inhibitor, single point]
Cc1cccc(C)c1N1CCN(c2ccc3nnc(C(F)(F)F)n3n2)CC1	active: 20.6 µM
O=C(CN(Cc1ccccc1Cl)C(=O)c1csnn1)NCc1ccc2c(c1)OCO2	inactive
C[C@H](O)[C@@H]1C(=O)N2CCc3c([nH]c4ccccc34)[C@@H]2C[C@@H]1N(C)C(=O)c1ccco1	inconclusive [inhibitor, single point]
CCCNC(=O)C1(C)CCN(C(=O)c2cccc(C#N)c2)C1 (stereo not drawn)	inactive
CCOC(=O)c1cc2ccc(OC(=O)c3ccco3)cc2oc1=O	inconclusive [inhibitor, full curve, poor fit]
Cc1nc2ccccc2n1CCc1nc2c3ccccc3nc(SCC(=O)Nc3ccc(C(C)C)cc3)n2n1	active: 11.6 µM
O=C(Nc1ccc2c(c1)OCO2)c1ccc2nc[nH]c2c1	inactive
CCCN(CCC)S(=O)(=O)c1ccc(C(=O)Nc2nnc(-c3cccc(OC)c3)o2)cc1	active: 5.8 µM
Cc1ccc(C)c(NC(=O)C2CCC(C)(C(=O)O)C2(C)C)c1 (stereo not drawn)	inactive
C[n+]1cc(-c2ccccc2)oc1-c1ccccc1	inactive
O=C(Nc1nnc(SCc2ccc(F)cc2)s1)c1ccccn1	active: 2.59 µM
CC1CC(C(F)F)n2nc(C(=O)Nc3sc4c(c3C#N)CCC(C(C)(C)C)C4)nc2N1 (stereo not drawn)	inconclusive [inhibitor, single point]
CCCc1ccc(NC(=O)C2CCN(c3cnccn3)CC2)cc1	active: 16.4 µM
CC(C)=NNc1cnnc2ccc([N+](=O)[O-])cc12	active: 13 µM
Cc1ccc(NC(=O)Cc2ccc(NC(=O)N3CCCCc4ccccc43)cc2)cc1	inconclusive [inhibitor, single point]
Clc1ccc(CSc2nc3ncccc3[nH]2)cc1	inconclusive [inhibitor, single point]
Cc1nn(Cc2ccccc2)c(C)c1C(=O)OCC(=O)c1cc(C)n(C2CC2)c1C	active: 23.1 µM

Structure (SMILES)	Potency
CCC(=O)N1CCc2cc(OC)c(OC)cc2C1COc1ccc(C(=O)OC)cc1 (stereo not drawn)	inconclusive [inhibitor, partial curve]
CNC(=O)COc1ccc(-c2nn(C)c(=O)c3ccccc23)cc1	inactive
COc1ccc(OC)c(/C=N/NC(=O)CCc2ccc(O)c(O)c2)c1	active: 20.6 µM
CCNC(=S)N1CCc2cc(OC)c(OC)cc2C1COc1ccc(OC)cc1 (stereo not drawn)	inconclusive [inhibitor, single point]
COc1ccc(Cl)cc1NC(=O)CN(C)CC(=O)NCc1cccs1	inconclusive [inhibitor, single point]
COCCCNC(=S)N/N=C/c1ccc(O)cc1O	inconclusive [inhibitor, full curve]
COc1ccc2c3n(nc2c1)CCN=C3c1cc(Cl)c(N)c(Cl)c1	inconclusive [inhibitor, single point]
O=C(NC(=S)Nc1ccccc1)c1cc(-c2ccccc2)nc2ccccc12	active: 29.1 µM
Cc1cccc(N(C(=O)c2ccco2)C(C(=O)NC2CCCC2)c2cccnc2)c1C (stereo not drawn)	inactive
CC(/C=C/C=C/c1ccccc1)=N/NC(=O)CNc1ccccc1C	active: 10.3 µM
COc1ccc(-c2csc(N(Cc3ccco3)C(=O)c3cccs3)n2)cc1	inconclusive [inhibitor, partial curve]
O=C(Nc1cccc(S(=O)(=O)c2cccc(NC(=O)c3ccco3)c2)c1)c1ccco1	inconclusive [inhibitor, single point]
O=C(CN1CCCCCC1)Nc1cc([N+](=O)[O-])ccc1Cl	inconclusive [inhibitor, single point]
COc1ccc(NC(=S)N2CCC3CC2c2c(Cl)cccc23)c(OC)c1 (stereo not drawn)	inconclusive [inhibitor, single point]
Cc1cc(Cl)ccc1NC(=O)CN1C(=O)C(=O)c2ccccc21	active: 5.8 µM
O=C(NNC(=O)c1cc(Cl)ccc1O)c1cccc(S(=O)(=O)N2CCOCC2)c1	inconclusive [inhibitor, single point]
COc1cc(-c2nn3c(-c4ccccc4)nnc3s2)cc(OC)c1OC	inconclusive [inhibitor, partial curve]
CN(Cc1ccco1)c1nc(-c2ccoc2)nc2ccccc12	inconclusive [inhibitor, single point]
CCOC(=O)N1CCC(N(C(=O)Nc2ccc(CC)cc2)C(C)CC)CC1 (stereo not drawn)	inconclusive [inhibitor, single point]
O=C1c2[nH]nc(-c3ccccc3O)c2C(c2ccc(F)cc2)N1Cc1ccco1 (stereo not drawn)	active: 18.4 µM
CCOC(=O)C1(Cc2ccc(OC)cc2)CCN(C(=O)c2sc(C)nc2C)CC1	active: 25.9 µM
C#CCNC(=O)C1=C[C@H](C2CCCCC2)C[C@H](OCc2ccc(CO)cc2)O1	inconclusive [inhibitor, single point]
CCOC(=O)N1CCN(S(=O)(=O)c2cc(-c3nn4c(C)nnc4c4ccccc34)ccc2C)CC1	inconclusive [inhibitor, single point]
CCN1CCN(C(c2ccccc2)c2c(O)cc(C)n(CCOC)c2=O)CC1 (stereo not drawn)	inactive
C[C@@H]1ON(C)[C@H]2C[C@H]3c4[nH]c5ccc(-c6ccc7c(c6)OCO7)cc5c4CCN3C[C@@H]12	inconclusive [inhibitor, single point]

Structure (SMILES)	Potency
COc1ccccc1C(=O)Nc1cc(Cl)ccc1-n1cncn1	inconclusive [inhibitor, single point]
CCOC(=O)C1CCN(Cc2cccc(OC)c2)CC1	inactive
O=C(O)c1cccc(Nc2nc(-c3cccnc3)nc3ccccc23)c1	inconclusive [inhibitor, single point]
COc1ccccc1N1CCN(C(=O)C2CCN(S(=O)(=O)c3ccccc3F)CC2)CC1	inconclusive [inhibitor, single point]
CC(C)NC(=O)CN1C(=O)c2ccccc2S1(=O)=O	inactive
O=C(COc1ccccc1)N(Cc1cc2ccccc2[nH]c1=O)CC1CCCO1 (stereo not drawn)	inconclusive [inhibitor, single point]
O=C(NN=Cc1ccccc1O)NN=Cc1ccccc1O	active: 4.11 µM
COC1=C(Nc2ccc(C)cc2)C(=O)c2ccccc2C1=O	inconclusive [inhibitor, single point]
COc1ccc(CSc2nc3ccccc3[nH]2)cc1	inconclusive [inhibitor, partial curve]
CCC1(C2CCN(Cc3cccc4ccccc34)CC2)NC(=O)N(Cc2ccc3c(c2)OCO3)C1=O (stereo not drawn)	inconclusive [inhibitor, single point]
CC1CCCN(S(=O)(=O)c2ccc(-c3ccc(=O)[nH]n3)o2)C1 (stereo not drawn)	inactive
CC(C)(C)c1nc2ccc(Cl)cn2c1CC1CCCCC1	inconclusive [inhibitor, partial curve]
O=C(C[n+]1cc(-c2ccc(F)cc2)n2c1CCC2)Nc1nc(-c2ccc(F)cc2)cs1	inconclusive [inhibitor, single point]
CC(/C=N/NC(=O)c1cc(-c2cccn2C)n[nH]1)=C\c1ccccc1	inconclusive [inhibitor, single point]
O=C(Nc1nc(-c2ccco2)c(-c2ccco2)s1)c1c(F)cccc1Cl	inactive
CCc1ccc(-n2c(SCC(=O)Nc3ccc(C(=O)O)cc3)nnc2-c2ccncc2)cc1	inactive
O=C(O)COc1ccccc1/C=N/NC(=O)CN1CCN(Cc2ccc(Cl)cc2)CC1	inactive
COc1ccc(Cn2nnc3c(C)n[nH]c(=O)c32)cc1	inactive
COCCN(C(=S)Nc1ccc(C)cc1C)C(C)c1cccs1 (stereo not drawn)	inconclusive [inhibitor, single point]
COc1ccc(OC)c(C(O)c2ncc(-c3ccc(C(F)(F)F)cc3)[nH]2)c1 (stereo not drawn)	inconclusive [inhibitor, single point]
C=CCN1CCc2nc(N)sc2CC1	inactive
CC(=O)C1=C(O)C(=Cc2ccccc2)OC1=O	inactive
Cc1cccc(C)c1-n1nnnc1SCSc1nnnn1-c1c(C)cccc1C	inconclusive [inhibitor, partial curve]
